The source of these data is a collection of fitness landscapes (doi:10.1126/science.1257360).

The list shows a part of the results. Bounds are passed on as bounds.

The labels stand for the following.
B1: PhoQ; a variant is named by its letters at X, in order, P23837 (parent)
chain: MKKLLRLFFPLSLRVRFLLATAAVVLVLSLAYGMVALIGYSVSFDKTTFRLLRGESNLFYTLAKWENNKLHVELPENIDKQSPTMTLIYDENGQLLWAQRDVPWLMKMIQPDWLKSNGFHEIEADVNDTSLLLSGDHSIQQQLQEVREDDDDAEMTHSVAVNVYPATSRMPKLTIVVVDTIPVELKSSYMVWSWFIYVLSANLLLVIPLLWVAAWWSLRPIEALAKEVRELEEHNRELLNPATTRELTSLVRNLNRLLKSERERYDKYRTTLTDLTHSLKTPLXXLQXXLRSLRSEKMSVSDAEPVMLEQISRISQQIGYYLHRASMRGGTLLSRELHPVAPLLDNLTSALNKVYQRKGVNISLDISPEISFVGEQNDFVEVMGNVLDNACKYCLEFVEISARQTDEHLYIVVEDDGPGIPLSKREVIFDRGQRVDTLRPGQGVGLAVAREITEQYEGKIVAGESMLGGARMEVIFGRQHSAPKDE

The variants in the assay derive from B1. Briefly: enrichment ratio after two sorts for PhoP signalling (ratio (wild type AVST 3.29)); higher = more functional. The conditions noted are these: with PhoP (E. coli).
Turning to NASD, the enrichment ratio was not above 0.25.
The figure for SQPC is not above 0.25.
Regarding IRGE, the enrichment ratio is not above 0.25.
The figure for MHAP is not above 0.25; for WEFS it is not above 0.25; for YDLQ it is not above 0.25.
The figure for AKKG is not above 0.25; for NPYI it is not above 0.25.
The same measure for NFPG: not above 0.25; for RRQQ: not above 0.25; for IGFS: not above 0.25.
In the case of YKDV, the enrichment ratio is not above 0.25.
The same measure for GGRK: not above 0.25; for GNND: not above 0.25; for YFGP: 0.289.
On to ARKF, for which the enrichment ratio was not above 0.25.
In the case of RKDY, the enrichment ratio was not above 0.25.
The same measure for WVHA: not above 0.25; for DFIE: not above 0.25.
QVSG: the enrichment ratio amounted to 1.56.
The figure for ACTC is 4.29; for GWAN it is not above 0.25; for RYGG it is not above 0.25.
The same measure for YICD: not above 0.25.
The figure for ALRA is not above 0.25.
In the case of YTYK, the enrichment ratio was not above 0.25.
The same measure for DLLY: not above 0.25.
The figure for IGRQ is not above 0.25.
The same measure for QVYW: not above 0.25.
Turning to FNWP, the enrichment ratio is not above 0.25.
The same measure for RAQC: not above 0.25; for YPTR: not above 0.25; for HHWI: not above 0.25.
The same measure for STKH: not above 0.25; for SMRI: not above 0.25.
The same measure for SHPE: not above 0.25; for PWIT: not above 0.25.
In the case of SQPS, the enrichment ratio was not above 0.25.
The figure for TLNL is not above 0.25; for NDCW it is not above 0.25; for WWFF it is not above 0.25.
For NSVT, the enrichment ratio is not above 0.25.
The figure for PIYT is not above 0.25; for DRDV it is not above 0.25.
The figure for ASQK is not above 0.25; for IEKF it is not above 0.25.
IHCT: the enrichment ratio is not above 0.25.
The figure for QMHN is not above 0.25; for QMFD it is not above 0.25.
The same measure for QVCG: not above 0.25.
The same measure for MSLP: not above 0.25; for IKCT: not above 0.25.
QMNM: the enrichment ratio is not above 0.25.
The same measure for GWIQ: not above 0.25; for GVLF: 10.3; for NTNL: not above 0.25.
The figure for WVAD is not above 0.25; for TQCY it is 15.8.
The same measure for TYEF: not above 0.25; for SRPK: not above 0.25.
On to KQMI, for which the enrichment ratio is not above 0.25.
The figure for NHWE is not above 0.25; for GYIF it is not above 0.25; for LIPM it is 1.53.
The figure for VIDL is not above 0.25; for QSQS it is not above 0.25; for MFWT it is not above 0.25.
The figure for YRMN is not above 0.25.
Turning to RIIA, the enrichment ratio is not above 0.25.
The same measure for EFEY: not above 0.25; for GNAH: not above 0.25.
The same measure for IDLH: not above 0.25; for NWGC: not above 0.25; for IWYP: not above 0.25.
The figure for MEFQ is 3.08; for VCQW it is not above 0.25.
QVSD: the enrichment ratio was not above 0.25.
The figure for SNRT is not above 0.25.
The figure for WLWT is not above 0.25.
The same measure for FRGQ: not above 0.25; for QGAF: not above 0.25.
IKNF: the enrichment ratio was not above 0.25.
The same measure for YQYP: not above 0.25; for WTPR: not above 0.25.
The figure for GWIN is not above 0.25; for YVHH it is not above 0.25; for YTES it is not above 0.25.
The same measure for WATI: not above 0.25; for VGQA: not above 0.25; for VSQM: not above 0.25.
WQRW: the enrichment ratio is not above 0.25.
The figure for PDQP is not above 0.25; for DHGG it is not above 0.25.
With SPRT, the enrichment ratio was not above 0.25.
The figure for YWGQ is not above 0.25; for GACP it is not above 0.25.
The same measure for FMYT: not above 0.25.
The same measure for THWT: 4.42; for VTGN: not above 0.25.
Take NRIE: the enrichment ratio was not above 0.25.
The same measure for WHRS: not above 0.25; for EYAF: not above 0.25.
ILGI: the enrichment ratio was not above 0.25.
The same measure for FPVP: not above 0.25; for LFPG: not above 0.25.
The figure for MELA is not above 0.25; for NDPV it is not above 0.25.
On to TNDL, for which the enrichment ratio was not above 0.25.
The figure for EYRW is not above 0.25; for VRPY it is not above 0.25; for KTLG it is not above 0.25.
The figure for ENPT is not above 0.25; for LGHS it is not above 0.25; for DWIR it is not above 0.25.
The figure for DTNN is not above 0.25.
For the variant GGDN, the enrichment ratio is not above 0.25.
The figure for ASGE is 4.1; for RLQW it is not above 0.25; for MMGF it is not above 0.25.
The same measure for HFNH: not above 0.25; for ARSY: not above 0.25.
As for NILA, the enrichment ratio was not above 0.25.
The figure for MPCF is not above 0.25; for PFNN it is not above 0.25.
Regarding GRQY, the enrichment ratio was not above 0.25.
The figure for MCIV is not above 0.25.
Consider TWSH, for which the enrichment ratio was not above 0.25.
The same measure for GTCA: not above 0.25; for RQEA: not above 0.25; for YSVN: not above 0.25.
The same measure for RWPW: not above 0.25; for MGHK: not above 0.25.
As to LGCQ, the enrichment ratio is not above 0.25.
The same measure for LQNQ: not above 0.25.
The figure for PHYF is not above 0.25; for KHLV it is not above 0.25.
The figure for MAHT is not above 0.25; for WQYS it is not above 0.25; for IRPR it is not above 0.25.
In the case of YEPM, the enrichment ratio was not above 0.25.
The same measure for PPLP: not above 0.25; for YTAT: not above 0.25; for MKLP: not above 0.25.
For the variant EPSI, the enrichment ratio is not above 0.25.
The same measure for ATVR: 4.36; for FSLD: not above 0.25; for RLGV: not above 0.25.
The figure for NWPC is not above 0.25; for GTVL it is 7.4.
The same measure for AHLF: 7.38; for VTSK: not above 0.25.
For PELD, the enrichment ratio is not above 0.25.
The same measure for TMMI: 0.351.
